The full ranking holds about 33,000 sequences; the median of “E-score (-0.5 to 0.5)” is about -0.041, and the highest 2% start at about 0.37. The list shows a part of the results.
The sequences below were run against T1, Ecm22 (UniProt Q05958) (assay: PBM E-score (8-mer binding enrichment) (E-score (-0.5 to 0.5)); higher = stronger / more preferred TF binding; most listed sequences are background and not binding sites). Conditions: protein concentration: 200 nM; construct: GST-full length.
T1 sequence: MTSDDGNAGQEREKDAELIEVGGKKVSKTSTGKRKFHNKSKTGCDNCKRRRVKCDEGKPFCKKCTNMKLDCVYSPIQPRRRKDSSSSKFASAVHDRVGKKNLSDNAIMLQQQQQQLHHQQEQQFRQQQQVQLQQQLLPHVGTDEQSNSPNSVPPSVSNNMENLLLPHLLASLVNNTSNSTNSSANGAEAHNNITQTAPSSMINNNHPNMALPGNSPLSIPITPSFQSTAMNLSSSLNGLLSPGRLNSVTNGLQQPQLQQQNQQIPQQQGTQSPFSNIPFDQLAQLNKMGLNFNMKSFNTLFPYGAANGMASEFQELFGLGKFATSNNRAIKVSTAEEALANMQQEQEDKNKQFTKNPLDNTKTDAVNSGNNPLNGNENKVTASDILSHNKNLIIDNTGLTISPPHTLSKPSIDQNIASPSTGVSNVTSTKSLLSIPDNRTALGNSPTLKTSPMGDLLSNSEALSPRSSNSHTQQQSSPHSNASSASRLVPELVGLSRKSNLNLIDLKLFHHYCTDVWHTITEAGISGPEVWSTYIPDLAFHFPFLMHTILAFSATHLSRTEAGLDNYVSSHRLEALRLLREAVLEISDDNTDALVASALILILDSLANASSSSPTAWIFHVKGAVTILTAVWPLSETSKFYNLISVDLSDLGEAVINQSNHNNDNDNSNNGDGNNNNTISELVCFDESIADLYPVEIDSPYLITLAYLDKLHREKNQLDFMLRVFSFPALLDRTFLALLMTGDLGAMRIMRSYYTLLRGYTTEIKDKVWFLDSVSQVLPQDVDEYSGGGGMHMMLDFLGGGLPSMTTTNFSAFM
In short: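 Full-length yeast transcription factors or their DNA-binding domains, GST-tagged and expressed with PURExpress, were applied at about 100-200 nM to universal all-10-mer Agilent arrays. These arrays had been made double-stranded by primer extension on fresh or once-stripped slides. Detection used fluorescent anti-GST, normalisation used masliner, and E-scores for ungapped eight-base words pooled with reverse complements came from the Universal PBM Analysis Suite.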

| Sequence | PBM E-score |
| --- | --- |
| GGGTTTTA | 0.0146 |
| ACGCCCGG | -0.0888 |
| CTTTACTC | -0.126 |
| CGGGGCTA | -0.157 |
| AAGTCTTG | -0.0433 |
| AGTACCCA | -0.208 |
| CTGCTCCC | -0.073 |
| TCCTTAAA | -0.1 |
| ATAAAGTA | -0.0364 |
| AAAAGCTA | 0.00415 |
| CACCCTCA | -0.223 |
| ATCTCCGA | 0.105 |
| CGCACAAC | 0.226 |
| TCTTCACA | 0.0421 |
| ATGAAGCC | -0.0926 |
| ACTGAGTC | -0.0115 |
| GTGATATA | 0.102 |
| CACCTAGC | -0.227 |
| GGCCGCGA | -0.113 |
| AGGAATTG | -0.0722 |
| CAGCTGAA | -0.185 |
| CCGAGTAG | 0.0401 |
| ATCCCGGG | 0.0366 |
| GATGCTGA | -0.109 |
| ACGGAAAG | -0.008 |

| Sequence | PBM E-score |
| --- | --- |
| GACGCTAC | 0.0696 |
| TGTCACAA | -0.161 |
| CTATACCC | -0.0698 |
| CTTACCAA | 0.0619 |
| ACTAACCT | -0.00368 |
| GTACCGCA | 0.284 |
| AATGAATA | 0.156 |
| CGGACGAG | -0.0963 |
| GCCTGTCC | -0.00321 |
| CCAACACG | 0.0109 |
| GGCCCCCA | -0.328 |
| ACGACCCC | 0.167 |
| CTACTAGC | 0.182 |
| AACGGCAT | 0.183 |
| ACAACAGT | -0.17 |
| CAGATGAC | -0.208 |
| ACTCAAAC | 0.00062 |
| AACAATTG | -0.0918 |
| GGGGGGTA | -0.282 |
| GACTTACC | -0.0762 |
| CTCAGCGC | -0.273 |
| CTGATACA | -0.0548 |
| CGACTACG | 0.151 |
| CGCAGATC | -0.123 |
| AAACTCAT | -0.0166 |

| Sequence | PBM E-score |
| --- | --- |
| AGCCACAC | 0.0634 |
| TAAACTCA | -0.0105 |
| CGGCGCCG | 0.0265 |
| CGAGTCAA | 0.1 |
| AAGCCTAA | -0.0818 |
| ATGCATGA | 0.0112 |
| CTAGACTC | -0.277 |
| ATACCGTC | 0.0334 |
| CAATTGTG | -0.023 |
| AAGTCTCC | -0.161 |
| CATGAGCA | -0.214 |
| CGAAACAG | 0.153 |
| TGCGTGAA | -0.0835 |
| GCTACCAC | -0.209 |
| CAGCTGTC | -0.112 |
| AGGTGCAT | -0.19 |
| AAGGGGTA | -0.217 |
| AACACCGA | -0.0321 |
| AGACATGC | -0.143 |
| AACTCTCC | -0.139 |
| AGACCGTG | -0.192 |
| ACGTGAGC | -0.227 |
| GCATCACA | -0.0326 |
| GTCTTGCA | -0.134 |
| AGCTCGCC | 0.197 |

| Sequence | PBM E-score |
| --- | --- |
| AATCTACT | -0.163 |
| GCATCGAA | 0.0551 |
| CTGCGGGA | -0.163 |
| ATTCGTGG | -0.00589 |
| GCCTACAC | -0.0224 |
| GTCTGACA | -0.0954 |
| ACGCGTCA | 0.177 |
| ACCCAGGG | -0.286 |
| TAACATCA | -0.0597 |
| GAATCCGC | -0.0414 |
| TAGGACGA | -0.216 |
| CCGACCGC | -0.0494 |
| TGATCCAA | -0.197 |
| ATTGCGTA | 0.2 |
| AAGTGGCC | -0.248 |
| AAGTACTA | 0.138 |
| ATAGCTAT | 0.0944 |
| CATCCGCG | 0.0321 |
| AATGACGT | -0.0386 |
| CGTAATGA | 0.129 |
| ATAAGGAT | 0.071 |
| ACAGCTTA | 0.0621 |
| CTTGAAGA | -0.29 |
| ACTATACA | 0.108 |
| CGAGGGTA | 0.225 |

| Sequence | PBM E-score |
| --- | --- |
| TAATATGA | 0.083 |
| CTCGAGAA | 0.0569 |
| GTAAAACA | 0.0963 |
| AGTAGTTA | -0.179 |
| AGTCGGAT | 0.122 |
| ATGCTAGG | -0.0553 |
| CGCTATGA | 0.0292 |
| GCTGGTAA | -0.147 |
| CGGCATCA | 0.0766 |
| AAGTCATT | -0.206 |
| CAATGAGC | -0.269 |
| TATAAAAA | 0.0731 |
| AGAGGTAG | -0.333 |
| CGGCGTCC | -0.14 |
| ACCGCTAC | 0.119 |
| AGTCGCCC | -0.349 |
| CGAGCCCA | 0.125 |
| GGAGATGA | -0.157 |
| AAACGAAC | 0.454 |
| CGCTACCA | 0.00702 |
| TACGAGCA | 0.467 |
| CAACACCA | -0.15 |
| GGTGATGA | -0.112 |
| GGTCAACA | -0.173 |
| CATCAACC | 0.0609 |

| Sequence | PBM E-score |
| --- | --- |
| CATTTTGC | -0.0711 |
| AGGGATAC | -0.0261 |
| AACCAGCG | -0.0573 |
| CCTTTTCC | 0.055 |
| GTTGCTGA | 0.063 |
| ACAAACAC | -0.0112 |
| AGCGCATG | -0.243 |
| CATTAGCG | 0.0731 |
| ATGCTCAG | -0.183 |
| AGCAGAAA | 0.0162 |
| AGAGATGA | -0.169 |
| GTTCATGA | 0.204 |
| CTCAATAC | -0.0168 |
| ACTTTGAC | -0.00106 |
| ATGAAGCA | -0.3 |
| GATTCCTA | -0.0542 |
| AACCCAAC | -0.0376 |
| ACTAGAAA | -0.124 |
| TAGTCCCA | -0.146 |
| TGTATACA | 0.0967 |
| GCAGCCTA | -0.028 |
| GTGCATTA | -0.0444 |
| ATTTAAGC | 0.2 |
| CGAATCCA | 0.23 |
| TCCCTTCA | -0.124 |

| Sequence | PBM E-score |
| --- | --- |
| ACACCCAG | -0.2 |
| CTATCCAA | -0.203 |
| AATAAGGG | 0.00161 |
| AACATCGG | -0.075 |
| CACATCGG | 0.027 |
| AGCATCTA | -0.154 |
| GGCACCTA | -0.0654 |
| AGAGAATA | -0.204 |
| AGTCGAGC | -0.134 |
| AGTAATTC | -0.0252 |
| AAACATTG | -0.147 |
| CATATGTA | -0.0192 |
| ACGCTACG | 0.382 |
| GACGTAGC | 0.0751 |
| CTGTCCTC | -0.227 |
| GTATGTGA | 0.107 |
| CGTAAACA | 0.385 |
| GTCAGGTA | -0.0731 |
| ATAGAGCA | -0.0337 |
| CTTCATTA | -0.183 |
| AGCTGACG | -0.151 |
| TAGCTTCA | -0.247 |

Reference: the supplement of paper PMC3334620
